Reference: the supplement of paper PMC3334620
Over roughly 33,000 sequences, “E-score (-0.5 to 0.5)” has its median near -0.011; the highest 2% begin near 0.28. The list shows a part of the results.

These sequences were tested against T1, Gcr1 (UniProt P07261) (assay: PBM E-score (8-mer binding enrichment) (E-score (-0.5 to 0.5)); higher = stronger / more preferred TF binding; most listed sequences are background and not binding sites). Settings: protein concentration: 100 nM; construct: GST-full length.
T1 sequence: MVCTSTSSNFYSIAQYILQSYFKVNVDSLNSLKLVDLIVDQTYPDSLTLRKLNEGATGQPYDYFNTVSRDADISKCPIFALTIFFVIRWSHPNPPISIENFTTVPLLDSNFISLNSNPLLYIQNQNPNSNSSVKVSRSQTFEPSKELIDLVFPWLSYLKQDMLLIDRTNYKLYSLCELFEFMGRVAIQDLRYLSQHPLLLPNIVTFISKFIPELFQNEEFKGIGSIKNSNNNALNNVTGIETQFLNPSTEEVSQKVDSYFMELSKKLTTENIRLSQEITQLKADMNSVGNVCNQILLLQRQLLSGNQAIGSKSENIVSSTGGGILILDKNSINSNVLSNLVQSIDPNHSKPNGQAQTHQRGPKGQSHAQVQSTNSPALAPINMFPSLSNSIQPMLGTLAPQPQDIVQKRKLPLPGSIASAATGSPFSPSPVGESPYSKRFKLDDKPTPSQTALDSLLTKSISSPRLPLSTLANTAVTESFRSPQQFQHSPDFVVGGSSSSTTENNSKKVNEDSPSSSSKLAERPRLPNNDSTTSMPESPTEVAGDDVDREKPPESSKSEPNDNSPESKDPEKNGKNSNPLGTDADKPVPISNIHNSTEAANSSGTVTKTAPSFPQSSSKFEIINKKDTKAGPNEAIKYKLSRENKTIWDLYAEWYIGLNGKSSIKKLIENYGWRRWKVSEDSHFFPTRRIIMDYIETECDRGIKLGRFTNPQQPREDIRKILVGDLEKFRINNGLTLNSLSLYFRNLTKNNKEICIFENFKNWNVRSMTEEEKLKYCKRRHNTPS
In short: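 Universal all-10-mer Agilent arrays, double-stranded by primer extension on fresh or once-stripped slides, were probed with about 100-200 nM GST-tagged yeast transcription factors made by PURExpress. Fluorescent anti-GST detected bound protein, and masliner normalised the scans. E-scores from the Universal PBM Analysis Suite were given to each ungapped eight-base word pooled with its reverse complement.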

Sequence | PBM E-score
CCGACCGC | -0.278
TAGGACGA | -0.219
GAATCCGC | 0.235
TAACATCA | 0.0816
ACCCAGGG | -0.0729
ACGCGTCA | -0.171
GTCTGACA | -0.00585
GCCTACAC | -0.0148
ATTCGTGG | 0.0839
CTGCGGGA | 0.162
AATCTACT | 0.0661
GCATCGAA | 0.0289
AGCTCGCC | -0.253
GCATCACA | 0.0953
GTCTTGCA | -6e-05
ACGTGAGC | 0.00326
AGACCGTG | -0.333
AACTCTCC | -0.145
AGACATGC | -0.0808
AAGGGGTA | -0.056
AACACCGA | -0.0565
AGGTGCAT | 0.0543
CAGCTGTC | -0.0336
GCTACCAC | 0.323
TGCGTGAA | 0.0341

Sequence | PBM E-score
CGAAACAG | 0.0228
AAGTCTCC | -0.0643
CATGAGCA | -0.144
CAATTGTG | 0.0106
ATACCGTC | 0.00724
AAGCCTAA | -0.119
ATGCATGA | -0.00529
CTAGACTC | 0.0719
CGAGTCAA | -0.223
CGGCGCCG | 0.113
TAAACTCA | -0.108
AGCCACAC | 0.235
AAACTCAT | 0.0159
CGCAGATC | -0.0553
CTGATACA | -0.124
CGACTACG | -0.151
CGAGCCCA | -0.119
ACCGCTAC | -0.0203
AGTCGCCC | 0.23
CGGCGTCC | 0.412
AGAGGTAG | 0.0431
TATAAAAA | 0.193
CAATGAGC | 0.0207
AAGTCATT | 0.0655
CGGCATCA | 0.223

Sequence | PBM E-score
GCTGGTAA | 0.122
ATGCTAGG | -0.0494
CGCTATGA | -0.0306
AGTCGGAT | 0.0121
GTAAAACA | 0.0102
AGTAGTTA | 0.0792
CTCGAGAA | -0.0292
TAATATGA | 0.187
CGAGGGTA | -0.198
ACTATACA | -0.0944
CTTGAAGA | 0.0304
ACAGCTTA | -0.0153
ATAAGGAT | 0.128
CGTAATGA | -0.0599
ATAGCTAT | 0.073
CATCCGCG | 0.00816
AATGACGT | -0.0848
AAGTACTA | -0.0751
AAGTGGCC | 0.085
ATTGCGTA | -0.0537
TGATCCAA | -0.00056
ACGATTAT | 0.0139
AGCAGGTG | -0.00993
AACCGCCT | 0.00084
AACAGCTC | -0.169

Sequence | PBM E-score
GCGCCCCA | 0.239
AGGAAATG | -0.145
TAAGTAAA | -0.00128
GCTGGTTA | 0.0507
CATACCAG | 0.0992
AAAGTTAG | -0.0674
ATGTCGCC | 0.129
CACAAAAA | 0.245
CACTAGCC | -0.188
ATGTGCAA | 0.12
ATATGAAG | -0.0858
ACACTGGT | 0.035
ATAACGTG | -0.138
AATCCACC | -0.168
CCGTACAA | -0.0933
CGAGCCAG | -0.214
CAAATGGA | -0.0274
CAAGCCAG | -0.272
AGCCTATC | 0.0792
ACTGTACG | -0.14
CGGTCACC | 0.00872
ATTTTGAG | 0.162
AGCGGGCA | -0.156
AAGCTAAA | -0.0804
CAGTTGCG | 0.0778

Sequence | PBM E-score
ACAGTTTG | -0.116
ACCCCATG | 0.0445
CTGCAAGA | 0.118
ATAACCAT | -0.0881
GACAGAAC | -0.0251
ACCCCGGG | -0.106
ATTATCGG | -0.0927
GGGAGTCA | 0.0276
GCTCCATA | 0.143
CGTGCTCC | 0.0296
ACCTTGCG | -0.0748
CTACCGGC | 0.132
ATTCGGTG | 0.0443
AGAGTCCA | 0.206
AAGCTACT | 0.137
GACTCTCC | -0.0341
AAATCCGT | 0.0169
GACTGACA | 0.141
CAAAGAAA | 0.0448
TTCCGGAA | 0.27
CTGGATGC | 0.425
GAGTCATC | -0.162
AACTCCTT | 0.0317
CGCTGAAG | -0.0695
ACCTACCG | -0.187

Sequence | PBM E-score
ACGTGCAG | 0.035
CAATTGAA | -0.0703
GTTATGAA | 0.201
CCGTTGCA | -0.224
ATGAAGGA | -0.126
ATCAATTG | 0.0455
GCCACCCA | -0.0571
ACCTCGCG | -0.229
CTCTTTGA | -0.037
ACTTACCC | 0.0825
AGCGTCAG | -0.0918
ACTTCGTA | 0.0106
CCTGATGA | 0.0569
GACAACGC | -0.0673
AAGAATCG | -0.141
ACTACCTC | -0.0199
GTAAGCTA | -0.0515
ACTTCTGA | 0.00793
CAAACAAC | 0.089
ATAAACCC | -0.0238
GGGGATGA | -0.141
TAAGCCGA | -0.177
AAGTGAGC | -0.074
CCCACACA | 0.147
ACGACCTG | -0.151

Sequence | PBM E-score
ATTGTATG | -0.00951
AATGCCTC | -0.00215
CAGCCGTC | -0.241
CGCTATTC | -0.0212
GCAGCTTA | 0.179
CCCCAAGA | 0.0196
ACGAGTTA | -0.102
AAATTGTA | 0.0504
TAGTAACA | 0.0733
TAATGGTA | 0.09
CCTCCCAC | -0.00343
GTCTAGAC | -0.0403
GTCTTGTA | 0.0494
ATCTGGCC | -0.17
ATACCGCC | -0.0815
TAATTGCA | -0.0517
AGCACGAA | -0.05
GCCTGCTA | -0.143
CCACCCAC | -0.0236
AGTGAGGC | -0.131
ACCAAATC | 0.0988
AGATTACC | -0.0443
